Source: the antibiotic and cytotoxicity screens of Wong et al. (2023)
The other results are listed elsewhere or left out.

The compounds below were run on HSkMC (human skeletal muscle cells) (assay: cytotoxicity call (relative viability < 0.9)). Conditions: 10 µM.
O=C(N[C@@H](c1cccnc1)c1ccc2c(c1)OCO2)C1CCN(CCOc2ccc(Cl)cc2Cl)CC1 was tested, and the cytotoxicity call was “inactive”.
O=C(CO)C(O)C(O)C(O)CO (stereo unspecified) was tested, and the cytotoxicity call was “inactive”.
In the case of Cc1noc(C)c1NC(=O)N(C)C[C@H]1Oc2c(NC(=O)c3ccncc3)cccc2C(=O)N([C@H](C)CO)C[C@@H]1C, the cytotoxicity call is reported as “inactive”.
COc1cccc(NC(=O)N[C@H]2C=C[C@@H](CC(=O)N3CCOCC3)O[C@H]2CO)c1 was tested, and the cytotoxicity call was “inactive”.
With CC(C)NC(=O)N(C)C[C@@H]1Oc2ccc(NS(=O)(=O)c3cccs3)cc2C(=O)N([C@@H](C)CO)C[C@H]1C the cytotoxicity call was “inactive”.
With Cc1c(C(=O)O)sc2[nH]cnc(=O)c12 the cytotoxicity call was “inactive”.
With C[C@@H]1CN([C@@H](C)CO)C(=O)c2cccc(NC(=O)Nc3ccc(C(F)(F)F)cc3)c2O[C@@H]1CN(C)C(=O)Nc1cccc2ccccc12 the cytotoxicity call was “active”.
With C[C@@H]1CN([C@H](C)CO)C(=O)CCCn2cc(nn2)CO[C@H]1CN(C)Cc1ccc2c(c1)OCCN2C the cytotoxicity call was “inactive”.
Cc1noc(C)c1NC(=O)N(C)C[C@H]1OCCCC[C@H](C)Oc2ccc(NC(=O)Nc3ccc(F)cc3)cc2C(=O)N([C@H](C)CO)C[C@@H]1C was tested, and the cytotoxicity call was “inactive”.
For C[C@@H]1CN([C@@H](C)CO)C(=O)Cc2cc(NS(=O)(=O)c3cn(C)cn3)ccc2O[C@H]1CN(C)S(=O)(=O)c1ccc(Cl)cc1, the cytotoxicity call was “inactive”.
With C[C@H]1CN([C@@H](C)CO)C(=O)c2cc(NS(=O)(=O)c3cn(C)cn3)ccc2O[C@@H]1CN(C)S(=O)(=O)c1cccs1 the cytotoxicity call was “inactive”.
CCCCn1c(-c2ccccc2)nc(-c2ccccc2)c1CN(Cc1ccc2c(c1)OCO2)Cc1ccc2c(c1)OCO2 was tested, and the cytotoxicity call was “inactive”.
For C[C@@H]1CN([C@@H](C)CO)S(=O)(=O)c2ccc(C#Cc3ccccc3)cc2O[C@H]1CN(C)C(=O)Cc1ccccn1, the cytotoxicity call was “inactive”.
For C[C@@H]1CN([C@H](C)CO)C(=O)c2cc(NC(=O)NC3CCCCC3)ccc2O[C@@H](C)CCCCO[C@H]1CN(C)S(=O)(=O)c1cccs1, the cytotoxicity call was “inactive”.
With CCCNC(=O)N(C)C[C@H]1Oc2cc(-c3ccccc3F)ccc2S(=O)(=O)N([C@@H](C)CO)C[C@@H]1C the cytotoxicity call was “inactive”.
In the case of CCCC#Cc1ccc2c(c1)O[C@H](CN(C)C(=O)c1cnccn1)[C@H](C)CN([C@@H](C)CO)S2(=O)=O, the cytotoxicity call is reported as “inactive”.
COc1ccc(S(=O)(=O)Nc2ccc3c(c2)C(=O)N([C@@H](C)CO)C[C@H](C)[C@@H](CN(C)C(=O)c2ccccc2)OCCCC[C@@H](C)O3)cc1 was tested, and the cytotoxicity call was “inactive”.
Cc1c(-c2ccc(-c3ccc(Cl)c(Cl)c3)o2)nc(-c2ccccc2)c2c1CO[Si]2(C(C)C)C(C)C was tested, and the cytotoxicity call was “inactive”.
In the case of N=C(N)NCCCCNC(=N)N, the cytotoxicity call is reported as “inactive”.
In the case of O=C(C[C@@H]1C=C[C@H](NC(=O)Nc2ccc3c(c2)OCO3)[C@@H](CO)O1)NCCCN1CCOCC1, the cytotoxicity call is reported as “inactive”.
With C[C@H]1CN([C@@H](C)CO)C(=O)c2cc(NS(=O)(=O)c3cccs3)ccc2O[C@H]1CN(C)Cc1ccc(Oc2ccccc2)cc1 the cytotoxicity call was “inactive”.
For COc1ccc(S(=O)(=O)N[C@@H]2C=C[C@H](CC(=O)NCCc3ccncc3)O[C@@H]2CO)cc1, the cytotoxicity call was “inactive”.
COc1ccc(NC(=O)N(C)C[C@@H]2OCCCC[C@H](C)Oc3ccc(NC(=O)Nc4c(C)noc4C)cc3C(=O)N([C@H](C)CO)C[C@@H]2C)cc1 was tested, and the cytotoxicity call was “inactive”.
With CCC1=C(C)CN(C(=O)NCCc2ccc(S(=O)(=O)NC(=O)NC3CCC(C)CC3)cc2)C1=O (stereo unspecified) the cytotoxicity call was “inactive”.
For C[C@H](CO)N1C[C@H](C)[C@@H](CN(C)Cc2cccc(F)c2)Oc2cc(C#CC3CC3)ccc2S1(=O)=O, the cytotoxicity call was “inactive”.
In the case of CCN(CC)c1ccc(N2CC=C[C@@]34O[C@@H]5/C=C\CCCOC(=O)[C@@H]5[C@H]3C(=O)N([C@@H](C)CO)[C@@H]4C2=O)cc1, the cytotoxicity call is reported as “inactive”.
For COc1ccc(-c2cc(=O)c3c(O)cc(O[C@@H]4O[C@H](CO[C@@H]5O[C@@H](C)[C@H](O)[C@@H](O)[C@H]5O)[C@@H](O)[C@H](O)[C@H]4O)cc3o2)cc1O, the cytotoxicity call was “inactive”.
In the case of C[C@H]1CN([C@@H](C)CO)C(=O)c2cc(NC(=O)CCCCCC(=O)Nc3ccccc3N)ccc2O[C@H]1CN(C)Cc1ccc(Cl)c(Cl)c1, the cytotoxicity call is reported as “inactive”.
In the case of C[C@@H]1CN([C@H](C)CO)C(=O)Cc2cc(NC(=O)CCN3CCOCC3)ccc2O[C@@H]1CN(C)S(=O)(=O)c1ccc(F)cc1, the cytotoxicity call is reported as “inactive”.
NCCOc1ccccc1Cc1ccccc1 was tested, and the cytotoxicity call was “inactive”.
In the case of C[C@H](CO)N1C[C@H](C)[C@@H](CN(C)C(=O)Nc2cccc3ccccc23)OCCCC[C@H](C)Oc2ccc(NC(=O)CCC(F)(F)F)cc2C1=O, the cytotoxicity call is reported as “inactive”.
